This note sets out measurements from patent US11000038B2, “Pyridone compounds and agricultural and horticultural fungicides containing the same as active ingredients” (priority 2017, dated 2021).

Each structure is given as a SMILES string.

Assay [1] concerns wheat brown rust fungi (Puccinia recondita). The assay can be described thus: Test Example E: wheat brown rust, spray treatment of wheat plants. The assay is classed as in vivo. The note with it: wheat brown rust, spray treatment of wheat plants.
Assay [2] relates to barley powdery mildew fungi (Blumeria graminis f. sp. hordei). Kind of assay: Test Example D: barley powdery mildew, spray treatment of barley plants. As to conditions: barley powdery mildew, spray treatment of barley plants.
Assay [3] has as its system grape downy mildew fungus (Plasmopara viticola). The assay can be described thus: Test Example G: grape downy mildew, spray treatment of grape plants. The note with it: grape downy mildew, 250 ppm spray (2.5 ml/pot), 7 to 10 days after inoculation.
The subject of assay [4] is gray mold fungi (Botrytis cinerea). The assay can be described thus: Test Example B: tomato gray mold, spray treatment of tomato plants. As to conditions: tomato gray mold, spray treatment of tomato plants.
The subject of assay [5] is cabbage Alternaria sooty spot fungi (Alternaia brassicicola). The assay can be described thus: Test Example C: cabbage Alternaria sooty spot, spray treatment of cabbage plants. The format is in vivo. As to conditions: cabbage Alternaria sooty spot, spray treatment of cabbage plants. The source says:
[Test Example C] Cabbage Alternaria Sooty Spot
Test plants (cabbage variety: Shikidori) were cultivated until the cotyledons extended after the sowing of seeds.
<Control Value> Control value=100{1−(n/3)}

Take `Cc1ccccc1-n1cc(Br)c(=O)c(Cl)c1-c1ccc(C#N)cc1` [Compound 237]: in assay [1], the “Test E control value” was “L (L shows the control value of 50% or less)”. In assay [2], the “Test D control value” is listed as “L (L shows the control value of 50% or less)”. Besides, the “Test G control value” in assay [3] is on record as “L (L shows the control value of 50% or less)”. Also, the “Test B control value” in assay [4] is given as “L (L shows the control value of 50% or less)”. In addition, in assay [5], the “Test C control value” was “L (L shows the control value of 50% or less)”.
In the case of `Cc1ccccc1-n1cc(Br)c(=O)c(Br)c1-c1ccc(C#N)cc1` [Compound 238], the “Test E control value” in assay [1] was “L (L shows the control value of 50% or less)”. The “Test D control value” in assay [2] was “L (L shows the control value of 50% or less)”. In addition, in assay [3], the “Test G control value” is recorded as “L (L shows the control value of 50% or less)”. The “Test B control value” in assay [4] is on record as “L (L shows the control value of 50% or less)”. In addition, the “Test C control value” in assay [5] was “L (L shows the control value of 50% or less)”.
As for `Cc1ccc(Cl)cc1-n1cc(Br)c(=O)c(Br)c1-c1c(F)cc(F)cc1F` [Compound 239], the “Test E control value” in assay [1] is recorded as “H (H shows the control value of more than 50%)”. Also, in assay [2], the “Test D control value” is on record as “L (L shows the control value of 50% or less)”. For the same molecule, the “Test G control value” in assay [3] is given as “L (L shows the control value of 50% or less)”. Moreover, the “Test B control value” in assay [4] is reported as “H (H shows the control value of more than 50%)”. Also, the “Test C control value” in assay [5] was “H (H shows the control value of more than 50%)”.
In the case of `Cc1ccc(Cl)cc1-n1cc(Cl)c(=O)c(Br)c1-c1c(F)cc(F)cc1F` [Compound 240], the “Test E control value” in assay [1] was “H (H shows the control value of more than 50%)”. The “Test D control value” in assay [2] is on record as “L (L shows the control value of 50% or less)”. Also, the “Test G control value” in assay [3] is reported as “H (H shows the control value of more than 50%)”. For the same molecule, the “Test B control value” in assay [4] is reported as “H (H shows the control value of more than 50%)”. Moreover, the “Test C control value” in assay [5] was “H (H shows the control value of more than 50%)”.
With `COc1ccc(-c2c(C)c(=O)c(C)cn2-c2ccccc2C)cc1` [Compound 242], in assay [1], the “Test E control value” was “H (H shows the control value of more than 50%)”. In addition, the “Test D control value” in assay [2] was “L (L shows the control value of 50% or less)”. In addition, in assay [3], the “Test G control value” is “L (L shows the control value of 50% or less)”. Besides, the “Test B control value” in assay [4] is recorded as “H (H shows the control value of more than 50%)”. Besides, the “Test C control value” in assay [5] is recorded as “H (H shows the control value of more than 50%)”.
Regarding `COC(=O)c1ccc(-c2c(C)c(=O)c(C)cn2-c2ccccc2C)cc1` [Compound 243], in assay [1], the “Test E control value” was “L (L shows the control value of 50% or less)”. In addition, the “Test D control value” in assay [2] is reported as “L (L shows the control value of 50% or less)”. The “Test G control value” in assay [3] is given as “L (L shows the control value of 50% or less)”. Besides, the “Test B control value” in assay [4] is recorded as “H (H shows the control value of more than 50%)”. Also, the “Test C control value” in assay [5] was “H (H shows the control value of more than 50%)”.
As for `Cc1cn(CC(C)C)c(-c2c(F)cc(F)cc2F)c(C)c1=O` [Compound 245], the “Test E control value” in assay [1] is “H (H shows the control value of more than 50%)”. Also, the “Test D control value” in assay [2] is reported as “H (H shows the control value of more than 50%)”. Also, in assay [3], the “Test G control value” is on record as “L (L shows the control value of 50% or less)”. Further, the “Test B control value” in assay [4] was “H (H shows the control value of more than 50%)”. In addition, in assay [5], the “Test C control value” is reported as “H (H shows the control value of more than 50%)”.
Turning to `Cc1ccc(Br)cc1-n1cc(Br)c(=O)c(Cl)c1-c1c(F)cc(F)cc1F` [Compound 247], the “Test E control value” in assay [1] is given as “H (H shows the control value of more than 50%)”. For the same molecule, the “Test D control value” in assay [2] is recorded as “L (L shows the control value of 50% or less)”. Moreover, in assay [3], the “Test G control value” was “L (L shows the control value of 50% or less)”. The “Test B control value” in assay [4] was “H (H shows the control value of more than 50%)”. The “Test C control value” in assay [5] is “H (H shows the control value of more than 50%)”.
As for `Cc1ccc(Br)cc1-n1cc(Br)c(=O)c(Br)c1-c1c(F)cc(F)cc1F` [Compound 248], the “Test E control value” in assay [1] is listed as “H (H shows the control value of more than 50%)”. For the same molecule, the “Test D control value” in assay [2] was “L (L shows the control value of 50% or less)”. Moreover, the “Test G control value” in assay [3] is reported as “L (L shows the control value of 50% or less)”. Further, the “Test B control value” in assay [4] was “H (H shows the control value of more than 50%)”. For the same molecule, in assay [5], the “Test C control value” is reported as “H (H shows the control value of more than 50%)”.
Turning to `Cc1ccc(Br)cc1-n1cc(Cl)c(=O)c(Br)c1-c1c(F)cc(F)cc1F` [Compound 249], the “Test E control value” in assay [1] is given as “H (H shows the control value of more than 50%)”. In assay [2], the “Test D control value” is recorded as “L (L shows the control value of 50% or less)”. The “Test G control value” in assay [3] is recorded as “H (H shows the control value of more than 50%)”. In addition, in assay [4], the “Test B control value” is on record as “H (H shows the control value of more than 50%)”. Besides, the “Test C control value” in assay [5] is on record as “H (H shows the control value of more than 50%)”.
On to `Cc1ccccc1-n1cc(C)c(=O)c(C)c1-c1c(F)cncc1F` [Compound 251], for which, in assay [1], the “Test E control value” was “H (H shows the control value of more than 50%)”. In addition, in assay [2], the “Test D control value” is “L (L shows the control value of 50% or less)”. For the same molecule, the “Test G control value” in assay [3] was “L (L shows the control value of 50% or less)”. Moreover, the “Test B control value” in assay [4] is reported as “H (H shows the control value of more than 50%)”. Besides, in assay [5], the “Test C control value” was “H (H shows the control value of more than 50%)”.
For the molecule `Cc1ccccc1-n1cc(C)c(=O)c(C)c1-c1c(Cl)cncc1Cl` [Compound 252], the “Test E control value” in assay [1] is “H (H shows the control value of more than 50%)”. The “Test D control value” in assay [2] was “L (L shows the control value of 50% or less)”. Further, the “Test G control value” in assay [3] is “L (L shows the control value of 50% or less)”. The “Test B control value” in assay [4] was “H (H shows the control value of more than 50%)”. For the same molecule, the “Test C control value” in assay [5] is on record as “H (H shows the control value of more than 50%)”.
Turning to `Cc1ccccc1-n1cc(C)c(=O)c(C)c1-c1ccccc1` [Compound 253], the “Test E control value” in assay [1] is given as “H (H shows the control value of more than 50%)”. Moreover, the “Test D control value” in assay [2] is listed as “L (L shows the control value of 50% or less)”. Besides, the “Test G control value” in assay [3] is “H (H shows the control value of more than 50%)”. The “Test B control value” in assay [4] is “H (H shows the control value of more than 50%)”. Further, the “Test C control value” in assay [5] is listed as “H (H shows the control value of more than 50%)”.
As for `Cc1cn(CC#N)c(-c2c(F)cc(F)cc2F)c(C)c1=O` [Compound 255], the “Test E control value” in assay [1] is given as “H (H shows the control value of more than 50%)”. For the same molecule, the “Test D control value” in assay [2] is “L (L shows the control value of 50% or less)”. Also, the “Test G control value” in assay [3] was “L (L shows the control value of 50% or less)”. Also, the “Test B control value” in assay [4] is “L (L shows the control value of 50% or less)”. Further, the “Test C control value” in assay [5] is listed as “L (L shows the control value of 50% or less)”.
